We go through 72 sequences from paper PMC10726135.

The list shows a part of the results. At the low end of the ranking the order means little. Measured with an extract: partners may take part in the binding.

This experiment deals with T1, HNF4alpha2 (COS-7 nuclear extract) (UniProt P41235).
T1 sequence: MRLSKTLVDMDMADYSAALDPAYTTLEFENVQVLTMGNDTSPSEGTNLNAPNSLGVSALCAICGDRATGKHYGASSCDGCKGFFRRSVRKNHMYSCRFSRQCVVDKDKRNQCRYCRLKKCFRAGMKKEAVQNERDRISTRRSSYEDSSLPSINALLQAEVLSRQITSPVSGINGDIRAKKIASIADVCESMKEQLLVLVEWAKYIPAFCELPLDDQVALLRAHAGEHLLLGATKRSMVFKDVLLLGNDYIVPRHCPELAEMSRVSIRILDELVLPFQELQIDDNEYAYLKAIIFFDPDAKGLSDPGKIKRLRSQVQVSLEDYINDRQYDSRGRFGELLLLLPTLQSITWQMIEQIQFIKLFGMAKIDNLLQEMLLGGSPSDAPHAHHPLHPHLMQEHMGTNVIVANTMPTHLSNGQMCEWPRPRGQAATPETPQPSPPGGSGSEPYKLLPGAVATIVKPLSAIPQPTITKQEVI
Description: protein-binding microarray. The settings on record: COS-7 nuclear extract on double-stranded Agilent 4x180k PBM; binding buffer, salt, pH and temperature not given; high values mean tight binding; double strand, one strand shown; sequences stand for … in …GCCTAGGGAGATTAGAGTATCGGTCGA
Take CTGCACAGGACTGCTCTCTACTCAGGGGGT: the binding signal (log2 normalized intensity) is -1.05.

Take AGTAAAAGGTAGATACTATAATTAGAATCT: the binding signal (log2 normalized intensity) is -1.05. As to TTACCGGTGTGACTTTGGTTGGATTTCTTG, the binding signal (log2 normalized intensity) stood at 1.54.

As to GAATAGAAAGAGGTCAATGTACTTACAGCT, the binding signal (log2 normalized intensity) was -0.734. Turning to TTGGAAAGGCAGAGGAAAGCCCTAGCTGAC, the binding signal (log2 normalized intensity) was -1.07.

As for TATCTATTGGGTACAATGTTCACTATTTGA, the binding signal (log2 normalized intensity) is 2.76. Turning to TGCTTTAGGCCACCTGTGTCAACATGGACT, the binding signal (log2 normalized intensity) was found to be 2.48. As to GCTAGAGAGTTCAAGAAGGGCAGTTGACAG, the binding signal (log2 normalized intensity) is -0.995. Take CAAAAAGGCAAAGGTGTCAGGACCTTTCTT: the binding signal (log2 normalized intensity) stood at 0.634. In the case of TTTCCCCCTCACTGAATATGTTCGGGAGAC it was 2.61. With ACCCGGTGTGCGTGGGTGGGAAATCATTCC, the binding signal (log2 normalized intensity) came out at 0.922. In the case of CTTTCTATCAGCTCTCCGTGGACTTTGCCC, the binding signal (log2 normalized intensity) was 9.49. With CTAAGGGCATCTACTTTTAAAACGCTCAAA, the binding signal (log2 normalized intensity) was -1.13. With AAGGTCACCTCTTCAGATAGCCTTTGCCTC, the binding signal (log2 normalized intensity) is 0.723. In the case of ACTGCATTCCCTAGATGTCGCAGTAGATAA it was -0.864; in that of AACTTCTTCCAATGAAAGGTTAACCTGCTG, 1.36. In the case of GGAAAAAGGGACAAAACTTCAAAGCCCCTG it was 1.56; in that of CCCATGGCAGAGGCTGTACTCCTCACTGTT, -0.0328; in that of CTGGGCCCAAGTGCTCCTCCCCATCTCAGC, 3.17.

On to GATCCAGTGTGCAAATGTGTCTTTTTTAGT, for which the binding signal (log2 normalized intensity) is 1.7. Consider GGGATGAGGACTTTGATCAGCAATGGAGAG, for which the binding signal (log2 normalized intensity) stood at 2.84. Take ACAGAAGCTGCTCTAAGAATGCAGAAACAA: the binding signal (log2 normalized intensity) was -1.13. The result for CTTGTTAGTAGGGTCAAAGTCTGGATCCGT reads 4.75; that for TCTTGTCCTTCCCCTTTTGTGTTTGTCCCT, 3.04. The result for AAGGTAGGTAAGGGGGAATGCCAACAGGTC reads -0.572; that for AAAATTCCTTATGGTTAAGGTGAAAGTCCG, 3.58; that for ATAAAAGGCTGTTCTGATGCCATTCCCTGC, -0.986. As to AACATTCTTCTCAGTGTTTTGGGTCCTACA, the binding signal (log2 normalized intensity) worked out at 1.45.

With TACAGTGCACTTTGACCGCTCATTTGATCC, the binding signal (log2 normalized intensity) amounted to 4.9.

Consider AACCTATTAATATATTCATAACACTTGTAT, for which the binding signal (log2 normalized intensity) came to 1.36. The result for CGTATGAATGTGGGAAGCTGGCACAGCAGA reads -0.822; that for GCCACATCCCCCACACCGAGATAGTAGAGA, 3.19; that for CAATTTCCCCCATGAAATTGAGATAAACAT, 2.53. For the sequence TGTGACCTTTGACTCATTATCCCCCGCAAC, the binding signal (log2 normalized intensity) amounted to 5.33.

For AGTGTATTGTTCCCTTGCTCCACCCTTCTA, the binding signal (log2 normalized intensity) worked out at 1.85.

For CTCTTAGTATTACCATGTCCTGTGATTAAG, the binding signal (log2 normalized intensity) was found to be 1.66. Turning to TTTGTCTCTGGAGGGATCAGGTCTTTCCTG, the binding signal (log2 normalized intensity) came to 1.47. As for CCGTCCACCTTTGGATCCAGCTCCTGATGT, the binding signal (log2 normalized intensity) was 1.03. In the case of AGCTGCAGTCATGGAGGCATCATAAACTCC it was -1.08; in that of CCCAGTGAGCAATTCTTGTCCCTTTCAAGG, 0.836.

Consider GGTCAAGAGTTTTAAAGTATCCCATCCATT, for which the binding signal (log2 normalized intensity) stood at 1.67. The result for GTAGTTACAGCTCATTAATCATCCGTCACC reads -1.31. With GTGGACACAAAAAGGCTGTCACACTTGCCC, the binding signal (log2 normalized intensity) is 0.498. Regarding TATGAGCGGCGCTGACCCCGGGAGCAGCAT, the binding signal (log2 normalized intensity) is 1.05.

Consider GGAGAGCTAGTAAGGAGCTGAGTCATAGTG, for which the binding signal (log2 normalized intensity) is -0.825. Consider ACACCATTAGAGAACATGTACTTTGTACTG, for which the binding signal (log2 normalized intensity) is 5.83. On to AAGGGTCAAGGGTCATTTGTTTTTACAGAC, for which the binding signal (log2 normalized intensity) was 6.27. For the sequence TGCAGCTGCTGCCCAAAGGTCACCTCTTCA, the binding signal (log2 normalized intensity) is 3.63.

In the case of ATATAACCCTTGAACCTTCTTCTTGCAGTC, the binding signal (log2 normalized intensity) was determined as 2.64.

For GCCATTGTCCTTTGGGCTCATCCATTTTCC, the binding signal (log2 normalized intensity) came to 1.35. For AGGGCATATTGACTGCCCCAACGCCTCCTT, the binding signal (log2 normalized intensity) worked out at 1.64.

As to CCCAGGGGCTCCCACCAGGGGGAGGCTCAG, the binding signal (log2 normalized intensity) was -1.16. For GGTGTAGGTGCTGCACCTTGAAACCCCTCC, the binding signal (log2 normalized intensity) stood at 3.14. In the case of AGAATGCGAACCATTTCCCATGGGACTGGC it was -1.22. For GCACGCTTAGGGAACAAAGGTCAGTCCCGC, the binding signal (log2 normalized intensity) came out at 6. Regarding TATGACCAGTGTGTTGTGCTGACCTCCTGT, the binding signal (log2 normalized intensity) was determined as 3.19.

Turning to TTGACTGCAGAAGATAAGAATCTCTTTGTA, the binding signal (log2 normalized intensity) is -1.11.

As to GCAAGCTTGACCTTTGATCCAGGCTCAGTG, the binding signal (log2 normalized intensity) came out at 7.48. As for TATACAGTTGTGGGTATGTCTGTAGGTAAG, the binding signal (log2 normalized intensity) was found to be 1.69. As for TCTGCCCCTTATCTTCTGGCCACCTCTTCC, the binding signal (log2 normalized intensity) amounted to 1.69. Turning to ATCCTGGCTCTCCCACTTATCAGCCATGTG, the binding signal (log2 normalized intensity) is -1.12. Turning to AGGTAACATACCAAAAAGCATAACTGTATA, the binding signal (log2 normalized intensity) is -1.01. GCGGCTTCAGAGGCCAGCAGTGCTTTTCCC: the binding signal (log2 normalized intensity) is -0.963. For the sequence AGTAACACAGTAAGAGACTTCACCATCTGC, the binding signal (log2 normalized intensity) was -1.1. Take CTGGGATGAGATACCCATTCACATGACCTT: the binding signal (log2 normalized intensity) is 3.29. Take TCCTCAGGGAATTTCTAGGTTTGATCTTTG: the binding signal (log2 normalized intensity) amounted to 2.95. Turning to GGAGTGTGGGGTGGTGTCAGGAGTACAGGT, the binding signal (log2 normalized intensity) was found to be 1.29. In the case of GCAGACTTAGACCCTGACCTGGCATATCTC it was 1.69; in that of TGTTGAATACTTGGAGACAGTGAGACGCAA, -1.1.

Turning to GAGGATTAGTGGGAGATAAGGTGGAAAGAC, the binding signal (log2 normalized intensity) was -1.16.

In the case of TTTCAAACACCTGGGTCTGACCTCTTTCAA, the binding signal (log2 normalized intensity) came out at 2.54. CTTCTCTGCCTCAGAACTTCACTCAGTGGG: the binding signal (log2 normalized intensity) was 1.64.
